In the supplement of paper PMC8728848:
The other results are listed elsewhere or left out.

Columns and labels:
Test in all cases: glycan array binding signal (z-score within array); higher = stronger binding
Settings in all cases: glycan notation: IUPAC condensed, linker removed
Fuc(a1-2)Gal = molecular target: Fuc(a1-2)Gal
Method in brief: (§1)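 Negative Z-scores can be read as non-binding. The Z-score is calculated within each array and then averaged across arrays of one protein sequence at different concentrations or buffers and across linkers. Arrays, 3228 in all, were curated from the Consortium for Functional Glycomics database and kept only where the protein sequence was available.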

Fuc(a1-2)Gal(b1-3)GalNAc = molecular target: Fuc(a1-2)Gal(b1-3)GalNAc
Method in brief: as §1

[1] = molecular target: Fuc(a1-2)Gal(b1-3)GalNAc(a1-3)[Fuc(a1-2)]Gal(b1-4)Glc
Method in brief: as §1

[2] = molecular target: Fuc(a1-2)Gal(b1-3)GalNAc(a1-3)[Fuc(a1-2)]Gal(b1-4)GlcNAc
Method in brief: as §1

[3] = molecular target: Fuc(a1-2)Gal(b1-3)GalNAc(b1-3)Gal
Method in brief: as §1

[4] = molecular target: Fuc(a1-2)Gal(b1-3)GalNAc(b1-3)Gal(a1-4)Gal(b1-4)Glc
Method in brief: as §1

[5] = molecular target: Fuc(a1-2)Gal(b1-3)GalNAc(b1-4)[Neu5Ac(a2-3)]Gal(b1-4)Glc
Method in brief: as §1

Fuc(a1-2)Gal(b1-3)GlcNAc = molecular target: Fuc(a1-2)Gal(b1-3)GlcNAc
Method in brief: as §1

[6] = molecular target: Fuc(a1-2)Gal(b1-3)GlcNAc(b1-2)Man(a1-3)[Fuc(a1-2)Gal(b1-3)GlcNAc(b1-2)Man(a1-6)]Man(b1-4)GlcNAc(b1-4)GlcNAc
Method in brief: as §1

[7] = molecular target: Fuc(a1-2)Gal(b1-3)GlcNAc(b1-2)Man(a1-3)[Fuc(a1-2)Gal(b1-3)GlcNAc(b1-2)Man(a1-6)]Man(b1-4)GlcNAc(b1-4)[Fuc(a1-6)]GlcNAc
Method in brief: as §1

[8] = molecular target: Fuc(a1-2)Gal(b1-3)GlcNAc(b1-3)Gal(b1-4)Glc
Method in brief: as §1

[9] = molecular target: Fuc(a1-2)Gal(b1-3)GlcNAc(b1-3)GalNAc
Method in brief: as §1

[10] = molecular target: Fuc(a1-2)Gal(b1-3)GlcNAc(b1-3)[Fuc(a1-2)Gal(b1-3)GlcNAc(b1-6)]GalNAc
Method in brief: as §1

[11] = molecular target: Fuc(a1-2)Gal(b1-3)GlcNAc(b1-3)[Gal(b1-4)GlcNAc(b1-6)]Gal(b1-4)Glc
Method in brief: as §1

[12] = molecular target: Fuc(a1-2)Gal(b1-3)GlcNAc(b1-3)[Neu5Ac(a2-6)Gal(b1-4)GlcNAc(b1-6)]Gal(b1-4)Glc
Method in brief: as §1

[13] = molecular target: Fuc(a1-2)Gal(b1-3)GlcNAc6S
Method in brief: as §1

[14] = molecular target: Fuc(a1-2)Gal(b1-3)[Fuc(a1-4)]GlcNAc
Method in brief: as §1

[15] = molecular target: Fuc(a1-2)Gal(b1-3)[Fuc(a1-4)]GlcNAc(b1-2)Man(a1-3)[Fuc(a1-2)Gal(b1-3)[Fuc(a1-4)]GlcNAc(b1-2)Man(a1-3)]Man(b1-4)GlcNAc(b1-4)GlcNAc
Method in brief: as §1

[16] = molecular target: Fuc(a1-2)Gal(b1-3)[Fuc(a1-4)]GlcNAc(b1-2)Man(a1-3)[Fuc(a1-2)Gal(b1-3)[Fuc(a1-4)]GlcNAc(b1-2)Man(a1-6)]Man(b1-4)GlcNAc(b1-4)[Fuc(a1-6)]GlcNAc(b1-4)[Fuc(a1-6)]GlcNAc
Method in brief: as §1

[17] = molecular target: Fuc(a1-2)Gal(b1-3)[Fuc(a1-4)]GlcNAc(b1-3)[Fuc(a1-3)[Gal(b1-4)]GlcNAc(b1-6)]Gal(b1-4)Glc
Method in brief: as §1

[18] = molecular target: Fuc(a1-2)Gal(b1-3)[Fuc(a1-4)]GlcNAc(b1-3)[Gal(b1-4)GlcNAc(b1-6)]Gal(b1-4)Glc
Method in brief: as §1

[19] = molecular target: Fuc(a1-2)Gal(b1-4)Fuc(a1-3)]GlcNAc(b1-2)Man(a1-3)[Fuc(a1-2)Gal(b1-4)[Fuc(a1-3)]GlcNAc(b1-2)Man(a1-6)]Man(b1-4)GlcNAc(b1-4)GlcNAc
Method in brief: as §1

Fuc(a1-2)Gal(b1-4)Glc = molecular target: Fuc(a1-2)Gal(b1-4)Glc
Method in brief: as §1

Fuc(a1-2)Gal(b1-4)Glc6S = molecular target: Fuc(a1-2)Gal(b1-4)Glc6S
Method in brief: as §1

Fuc(a1-2)Gal(b1-4)GlcNAc = molecular target: Fuc(a1-2)Gal(b1-4)GlcNAc
Method in brief: as §1

[20] = molecular target: Fuc(a1-2)Gal(b1-4)GlcNAc(b1-2)Man
Method in brief: as §1

[21] = molecular target: Fuc(a1-2)Gal(b1-4)GlcNAc(b1-2)Man(a1-3)[Fuc(a1-2)Gal(b1-4)GlcNAc(b1-2)Man(a1-6)]Man(b1-4)GlcNAc(b1-4)GlcNAc
Method in brief: as §1

[22] = molecular target: Fuc(a1-2)Gal(b1-4)GlcNAc(b1-2)Man(a1-3)[Fuc(a1-2)Gal(b1-4)GlcNAc(b1-2)Man(a1-6)]Man(b1-4)GlcNAc(b1-4)[Fuc(a1-6)]GlcNAc
Method in brief: as §1

[23] = molecular target: Fuc(a1-2)Gal(b1-4)GlcNAc(b1-2)[Fuc(a1-2)Gal(b1-4)GlcNAc(b1-4)]Man(a1-3)[Fuc(a1-2)Gal(b1-4)GlcNAc(b1-2)Man(a1-6)]Man(b1-4)GlcNAc(b1-4)GlcNAc
Method in brief: as §1

[24] = molecular target: Fuc(a1-2)Gal(b1-4)GlcNAc(b1-3)Gal(b1-4)GlcNAc
Method in brief: as §1

[25] = molecular target: Fuc(a1-2)Gal(b1-4)GlcNAc(b1-3)Gal(b1-4)GlcNAc(b1-2)Man(a1-3)[Fuc(a1-2)Gal(b1-4)GlcNAc(b1-3)Gal(b1-4)GlcNAc(b1-2)Man(a1-6)]Man(b1-4)GlcNAc(b1-4)GlcNAc
Method in brief: as §1

[26] = molecular target: Fuc(a1-2)Gal(b1-4)GlcNAc(b1-3)Gal(b1-4)GlcNAc(b1-3)Gal(b1-4)GlcNAc
Method in brief: as §1

[27] = molecular target: Fuc(a1-2)Gal(b1-4)GlcNAc(b1-3)GalNAc
Method in brief: as §1

[28] = molecular target: Fuc(a1-2)Gal(b1-4)GlcNAc(b1-3)[Fuc(a1-2)Gal(b1-4)GlcNAc(b1-6)]GalNAc
Method in brief: as §1

[29] = molecular target: Fuc(a1-2)Gal(b1-4)GlcNAc(b1-3)[Fuc(a1-3)[Gal(b1-4)]GlcNAc(b1-6)]Gal(b1-4)Glc
Method in brief: as §1

[30] = molecular target: Fuc(a1-2)Gal(b1-4)GlcNAc(b1-6)GalNAc
Method in brief: as §1

[31] = molecular target: Fuc(a1-2)Gal(b1-4)GlcNAc6S
Method in brief: as §1

[32] = molecular target: Fuc(a1-2)Gal(b1-4)[Fuc(a1-3)]GlcNAc
Method in brief: as §1

[33] = molecular target: Fuc(a1-2)Gal(b1-4)[Fuc(a1-3)]GlcNAc(b1-2)Man(a1-3)[Fuc(a1-2)Gal(b1-4)[Fuc(a1-3)]GlcNAc(b1-2)Man(a1-6)]Man(b1-4)GlcNAc(b1-4)[Fuc(a1-6)]GlcNAc
Method in brief: as §1

[34] = molecular target: Fuc(a1-2)Gal(b1-4)[Fuc(a1-3)]GlcNAc(b1-2)[Fuc(a1-2)Gal(b1-4)[Fuc(a1-3)]GlcNAc(b1-4)]Man(a1-3)[Fuc(a1-2)Gal(b1-4)[Fuc(a1-3)]GlcNAc(b1-2)Man(a1-6)]Man(b1-4)GlcNAc(b1-4)GlcNAc
Method in brief: as §1

[35] = molecular target: Fuc(a1-2)Gal(b1-4)[Fuc(a1-3)]GlcNAc(b1-3)Gal(b1-4)[Fuc(a1-3)]GlcNAc
Method in brief: as §1

[36] = molecular target: Fuc(a1-2)Gal(b1-4)[Fuc(a1-3)]GlcNAc(b1-3)Gal(b1-4)[Fuc(a1-3)]GlcNAc(b1-3)Gal(b1-4)[Fuc(a1-3)]GlcNAc
Method in brief: as §1

[37] = molecular target: Fuc(a1-2)Gal(b1-4)[Fuc(a1-3)]GlcNAc(b1-3)GalNAc
Method in brief: as §1

[38] = molecular target: Fuc(a1-2)Gal(b1-4)[Fuc(a1-3)]GlcNAc(b1-3)[Neu5Ac(a2-6)Gal(b1-4)GlcNAc(b1-6)]Gal(b1-4)Glc
Method in brief: as §1

[39] = molecular target: Fuc(a1-2)Gal3S(b1-4)GlcNAc
Method in brief: as §1

B1: CAA (Caragana arborescens) (protein)
chain: VAVEFDTFDNPDWDPRTKHIGIDVNSIRSNKTTQWGFWNRQVADVDISYEASSKTLNVSLYYPGESYIVTDVVDLKDILPEWVRIGF
For B1, which “glycan array binding signal (z-score)” value (Fuc(a1-2)Gal) is on record?
Its value is -0.218.

What about the “glycan array binding signal (z-score)” value (Fuc(a1-2)Gal(b1-3)GalNAc) of the same binder?
Its value is -0.241.

And the “glycan array binding signal (z-score)” value [1]?
The value was -0.248.

What about the “glycan array binding signal (z-score)” value [2] of the same binder?
Its value is -0.248.

What about the “glycan array binding signal (z-score)” value [3] of the same binder?
Its value is -0.238.

What about the “glycan array binding signal (z-score)” value [4] of the same binder?
Its value is -0.234.

What about the “glycan array binding signal (z-score)” value [5] of the same binder?
Its value is -0.239.

And the “glycan array binding signal (z-score)” value (Fuc(a1-2)Gal(b1-3)GlcNAc)?
Its value is -0.24.

And the “glycan array binding signal (z-score)” value [6]?
The value was 4.07.

What about the “glycan array binding signal (z-score)” value [7] of the same binder?
Its value is 2.49.

What about the “glycan array binding signal (z-score)” value [8] of the same binder?
Its value is -0.237.

And the “glycan array binding signal (z-score)” value [9]?
The value was -0.244.

And the “glycan array binding signal (z-score)” value [10]?
The value was -0.242.

And the “glycan array binding signal (z-score)” value [11]?
The value was -0.249.

What about the “glycan array binding signal (z-score)” value [12] of the same binder?
The value was -0.254.

And the “glycan array binding signal (z-score)” value [13]?
The value was -0.245.

What about the “glycan array binding signal (z-score)” value [14] of the same binder?
The value was -0.244.

And the “glycan array binding signal (z-score)” value [15]?
The value was -0.14.

And the “glycan array binding signal (z-score)” value [16]?
Its value is 1.03.

And the “glycan array binding signal (z-score)” value [17]?
The value was -0.239.

And the “glycan array binding signal (z-score)” value [18]?
Its value is -0.239.

What about the “glycan array binding signal (z-score)” value [19] of the same binder?
The value was -0.171.

What about the “glycan array binding signal (z-score)” value (Fuc(a1-2)Gal(b1-4)Glc) of the same binder?
The value was -0.238.

What about the “glycan array binding signal (z-score)” value (Fuc(a1-2)Gal(b1-4)Glc6S) of the same binder?
The value was -0.229.

What about the “glycan array binding signal (z-score)” value (Fuc(a1-2)Gal(b1-4)GlcNAc) of the same binder?
Its value is -0.242.

What about the “glycan array binding signal (z-score)” value [20] of the same binder?
The value was -0.251.

And the “glycan array binding signal (z-score)” value [21]?
Its value is 2.51.

And the “glycan array binding signal (z-score)” value [22]?
Its value is 0.263.

And the “glycan array binding signal (z-score)” value [23]?
Its value is -0.069.

And the “glycan array binding signal (z-score)” value [24]?
Its value is -0.243.

And the “glycan array binding signal (z-score)” value [25]?
The value was -0.227.

And the “glycan array binding signal (z-score)” value [26]?
The value was -0.232.

And the “glycan array binding signal (z-score)” value [27]?
Its value is -0.236.

What about the “glycan array binding signal (z-score)” value [28] of the same binder?
The value was -0.245.

What about the “glycan array binding signal (z-score)” value [29] of the same binder?
Its value is -0.243.

What about the “glycan array binding signal (z-score)” value [30] of the same binder?
The value was -0.231.

And the “glycan array binding signal (z-score)” value [31]?
The value was -0.219.

What about the “glycan array binding signal (z-score)” value [32] of the same binder?
Its value is -0.247.

What about the “glycan array binding signal (z-score)” value [33] of the same binder?
Its value is 0.278.

And the “glycan array binding signal (z-score)” value [34]?
Its value is -0.233.

And the “glycan array binding signal (z-score)” value [35]?
Its value is -0.249.

What about the “glycan array binding signal (z-score)” value [36] of the same binder?
The value was -0.242.

What about the “glycan array binding signal (z-score)” value [37] of the same binder?
Its value is -0.238.

And the “glycan array binding signal (z-score)” value [38]?
Its value is -0.236.

What about the “glycan array binding signal (z-score)” value [39] of the same binder?
Its value is -0.244.
